Data published in PubChem BioAssay AID1508624 (National Center for Advancing Translational Sciences (NCATS), 2021).
Hit rate of the full screen: of about 48,000 compounds, about 120 (0.25%) were called active. Inconclusive results (about 4%) are left out. Calls come from the whole dose curve; as a rule, active = well fitted activation curve with a large enough effect; inconclusive = small, poorly fitted or top-dose-only effect, or another doubt; inactive = no such curve, though single readings can be large or run the other way. Some of the results follow.

assay: Primary qHTS for Identification of Small Molecule Activators of Huntingtin-Antisense Promoter Activity; conditions: HEK293 HTT-AS promoter firefly luciferase reporter, 24 h; series mostly up to 57.5 µM; activity change, positive = activation: at the top concentration; note: nearly all actives have a fitted effect of over 55% in size
Excerpt: Assay Provider: Russell L. Margolis M.D.
Department Neurology, Johns Hopkins University School of Medicine, Baltimore, MD
Huntington's Disease (HD) is a neurodegenerative disorder caused by a CAG repeat expansion in exon 1 of huntingtin (HTT). While there are currently no disease-modifying treatments for HD, recent efforts have focused on development of nucleotide-based therapeutics to lower HTT expression. As an alternative to siRNA or oligonucleotide methods, we hypothesized that suppression of HTT expression might be accomplished by small molecules that either (1) directly decrease HTT expression by suppressing HTT promoter activity or (2) indirectly decrease HTT expression by increasing the promoter activity of HTT-AS, the gene antisense to HTT that appears to inhibit expression of HTT.
We developed and employed a high throughput screen for modifiers of HTT and HTT-AS promoter activity using luminescent reporter HEK293 cells; of the 52,041 compounds tested, we identified 898 replicable hits. We used a rigorous stepwise approach to assess compound toxicity and the capacity of the compounds to specifically lower huntingtin protein in 5 different cell lines, including HEK293 cells, HD lymphoblastoid cells, mouse primary neurons, HD iPSCs differentiated into cortical-like neurons, and HD hESCs. We found no compounds which were able to lower huntingtin without lowering cell viability in all assays, though the potential efficacy of a few compounds at non-toxic doses could not be excluded.
SEQUENCE No. (1, 2, 3, etc.); […] (e.g., Cells, Incubation, Reagent, etc.); VALUE and DESCRIPTION.
1; Reagent; 4 uL; 2,500 Hek293 luciferase reporter cells per wells
3; Compound; 23 nL; Control inhibitor / compound library
5; Reagent; 2.5 uL; Firefly Luc reagent; Dual-Glo Luciferase Reporter Assay System (Promega)
6; Time; 10 min; room temperature incubation
7; Detection; Luminescence; FLuc
NOTES (numbers refer to sequence above)
1; High-throughput screening, measuring luminescence from a Hek293 luciferase reporter, was performed in 1,536 well white-walled tissue-culture treated plates. 2,500 cells were plated in 4 µL of Opti-MEM per well using a Multidrop Combi Reagent Dispenser (ThermoFisher).
2; Assay plates were cultured for 24 hours.
3; Control inhibitor (PTC124; final concentration of 50 uM) and compound library (at final concentrations of 460 nM - 57.5 uM) were added to the assay plate using the Kalypsis Pintool Robotic System equipped with 1536 pinheads.
4; Cells were then incubated for 24 hours at 37 degrees C prior to luminescence measurements.
5; In all cases, luminescence was measured using the Dual-Glo Luciferase Reporter Assay System (Promega) following the manufacturer's instructions.
6; Room temperature incubation.
7; Luminescence signal was obtained using the PerkinElmer ViewLux plate reader. Results were normalized to vehicle control (0% activity) and zero RLU (-100% activity).

Activity change, positive = activation, inactive:
COc1ccc(C(=O)NCC(c2ccc3c(c2)OCO3)N2CCOCC2)cc1OC (stereo not drawn) -9.15%
CC(=O)Nc1ccc(Nc2ncnc3sc4c(c23)CCCC4)cc1 -11.8%
CCn1c(CC2C(=O)N(C)c3ccc(Br)cc32)nc2ccccc2c1=O (stereo not drawn) -15.5%
Cc1cccc(C(=O)N2CCc3cc(CNS(=O)(=O)c4cccs4)ccc32)c1 -33.1%
Cc1ccc2nc(N(Cc3cccnc3)C(=O)CCOc3ccccc3)sc2c1 10.5%
CCc1cc2c(cc3c(=O)n(CC(=O)NCCOC)nc(CC)n32)s1 7.32%
CCOC(=O)c1ccc(NC(=O)Cn2cnc3sc(C(=O)OCC)c(C)c3c2=O)cc1 -21%
CCc1ccc(NC(=O)CSc2nc3c([nH]c4ccccc43)c(=O)n2-c2cccc(OC)c2)cc1 -32.5%
COc1cc(C)ccc1OCCSc1nc2ccc(NC(C)=O)cc2s1 -7.56%
CCCCCn1c(=O)c2c(nc3n2CCN3c2ccc(Br)cc2)n(C)c1=O -10.1%
CCC(Sc1nnc2c3ccccc3n(C)c2n1)C(=O)Nc1nnc(C(C)C)s1 (stereo not drawn) -16.2%
CCOc1ccc(NC(=O)CSc2nc(=O)[nH]c3c2CCC3)cc1 -23.6%
O=C(CSc1nc2c(cnn2-c2ccc(F)cc2)c(=O)[nH]1)Nc1ccccc1C(F)(F)F -15.5%
CCC(=O)N1CCc2cc(S(=O)(=O)CCC(=O)NCc3ccc(OC)cc3)ccc21 -11.3%
COc1ccccc1NC(=O)C1=C(C)Nc2nc(SCc3cccc(F)c3)nn2C1c1ccc(C(=O)O)cc1 (stereo not drawn) -5.96%
COc1cccc(CNC(=O)c2cc3ccc4cccnc4c3[nH]2)c1 11.7%
Cc1cccc(-c2nc(SCC(=O)N(C)c3ccccc3)c3c(=O)n(C)c(=O)n(C)c3n2)c1 -1.89%
O=C(c1ccco1)N1CCN(C(=O)c2cnn(-c3cccc(F)c3)c2C2CCNCC2)CC1 -1.15%
CCCN1C(=O)C2(c3ccccc31)c1c(oc3ccccc3c1=O)C(=O)N2CCCOC(C)C (stereo not drawn) -27.9%
O=C(O)c1ccc(C2Nc3ccccc3-c3nnc(SCc4ccc(Cl)cc4)nc3O2)cc1 (stereo not drawn) -11.8%
Cn1c(=O)cc(SCC(=O)N2CCN(c3ccccc3)CC2)c2ccccc21 24.5%
COc1cccc(C(=O)Nc2ccc(C(=O)OCc3cc(=O)n4nc(C5CC5)sc4n3)cc2)c1 -12.9%
COc1cc(OC)c(NC(=O)N2CC=C(c3c[nH]c4ccccc34)CC2)cc1Cl -21.8%
CC1CCN(c2cc(N3CCN(C)CC3)ccc2NC(=O)c2cc(C#N)c[nH]2)CC1 -2.96%
O=C(Cn1c(=O)n2nc(-c3cccc(F)c3)nc2c2ccccc21)N1CCN(c2ccccc2F)CC1 -3.93%
O=C(c1cccc(Cl)c1)N1CCC(c2nc3ccccc3o2)CC1 -18.2%
CC1CCN(C(=O)C(C)Sc2nc(-c3ccccc3)cc(C(F)(F)F)n2)CC1 (stereo not drawn) -37.8%
COc1ccc(OC)c(NC(=O)c2c(C)oc3ncnc(N4CCOCC4)c23)c1 -9.97%
CCCCn1c(=O)nc2n(-c3ccc(F)cc3)c3ccccc3cc-2c1=O -12.9%
CC(Sc1nc2c([nH]c3ccccc32)c(=O)n1-c1ccccc1)c1ccccc1 (stereo not drawn) -29.3%
Cc1ccc(-c2cc(C(F)(F)F)n3ncc(-c4ccc(Cl)cc4)c3n2)cc1 0%
CCOC(=O)C1CCN(C(=O)c2ccc3c(c2)N=C(CC)c2cc(C)ccc2S3)CC1 -30.8%
CN(C)CCN1C(=O)c2cccc3cc(N)cc(c23)C1=O -42.9%
CCOC(=O)N1CCN(C(=O)Cn2ncc3c4ccccc4n(Cc4ccc(F)cc4)c3c2=O)CC1 -25.6%
CCOC(=O)c1c(NC(=O)COc2ccc(Br)cc2)sc(C(C)=O)c1C 5.86%
COc1ccccc1-c1nnc(C2CCN(S(=O)(=O)c3ccc(F)c(C)c3)CC2)o1 -13.5%
O=C(COc1ccc(F)cc1)Nc1ccc(Cl)c(-c2nc3ccccc3[nH]2)c1 -20.8%
Cc1noc(C)c1S(=O)(=O)NCCc1csc2nc(-c3ccc(Cl)cc3)nn12 -25.2%
O=c1cc(CN2CCOCC2)occ1OCCCCCSc1ccnc2cc(C(F)(F)F)ccc12 -38.8%
CCCCc1nn2c(=O)cc(COC(=O)c3ccccc3NC(=O)c3cccc(C)c3)nc2s1 -0.784%
Cc1cccc(NC(=O)c2c(C)oc3ncnc(N4CCCCC4)c23)c1C -22.6%
Cc1ccc(Cl)cc1NS(=O)(=O)c1ccc(N2CCCCS2(=O)=O)cc1 -27.5%
Cc1nc(-c2ccc(F)cc2)sc1CCNC(=O)c1ccc(C(C)(C)C)cc1 -26.6%
CC(=O)Nc1cccc(-c2cn3cccnc3n2)c1 0%
Cc1ccc(NC(=O)Cn2c(=O)n(Cc3ccccc3)c(=O)c3c2c2cc(C)ccc2n3C)cc1 -6.25%
COc1ccc2nc(NC(=O)c3cc(=O)c4cc(C)c(C)cc4o3)sc2c1 -6.64%
Cc1ccc(C(=O)NCC(c2cccnc2)N2CCc3ccccc3C2)cc1C (stereo not drawn) -52.1%
CCOc1ccc(C(=O)c2c(N)c(-c3nc(-c4ccc(OCC)cc4)cs3)c3ccccn23)cc1 7.26%
CCOc1ccc(N2CC(c3nc4ccccc4n3CCOc3ccccc3)CC2=O)cc1 (stereo not drawn) -18.8%
Cc1nn(-c2ccccc2)c2sc(C(=O)Nc3cccc(Br)c3)cc12 -22%
Cc1nc2ncnn2c(C)c1CCC(=O)NCc1cccc(Cl)c1 -6.98%
Cc1ccc(NC(=O)c2cc(S(=O)(=O)N3CCCCC3)c[nH]2)cc1F -11.2%
COc1ccc(C2C=C(c3ccccc3)Nc3nc(NC(=O)/C=C/c4ccc(Cl)cc4)nn32)cc1 (stereo not drawn) -16.3%
CCN1C(=O)c2ccccc2Sc2ccc(NC(=O)c3ccc(C#N)cc3)cc21 -10.2%
O=C1NC(c2ccccc2)(c2ccccc2)C(=O)N1COP(=O)(O)O -0.297%
CN(C(=O)Cn1nnc(-c2ccc(S(C)(=O)=O)cc2)n1)c1ccccc1 -10.1%
Cc1c(C(=O)N(C)C)sc2c1c(=O)n(-c1ccccc1C(F)(F)F)c(=O)n2Cc1cccc(F)c1 -8.21%
COc1ccc(C(=O)Nc2nc3c(s2)Cc2cc(OC)ccc2-3)cc1 -29.7%
COc1ccc(NC(=O)CSc2oc(-c3ccco3)nc2S(=O)(=O)c2ccccc2)c(OC)c1 -11.5%
O[C@@H]1CO[C@H]2[C@@H]1OC[C@@H]2O -6.05%
CCOC(=O)CSc1nc2c(sc3ccccc32)c(=O)n1Cc1ccc(OC)cc1 -15.7%
Cc1cccc(NC(=O)c2sc(-n3nc(C)c(CCC(C)C)c3C)nc2C)c1 3.62%
Cc1ccc2c(c1)N(C(=O)N1CCC(C(=O)NCc3ccccc3F)CC1)CC(C)O2 (stereo not drawn) -23.3%
COc1ccc(OC)c(NC(=O)N2CCN(Cc3nc4ccc(C)cc4o3)CC2)c1 -16%
COc1ccc(CCNc2nc3cc(OC)c(OC)cc3c3nc(-c4cccnc4)nn23)cc1OC -15.7%
O=S(=O)(c1ccccc1)c1nc(-c2ccccc2F)oc1N1CCOCC1 -17.6%
COc1ccc(-c2cn3c(n2)sc2cc(C(=O)Nc4ccc(C)cc4C)ccc23)cc1 12.4%
COc1cc2ccccc2cc1C(=O)Nc1ccc2oc(-c3cccc(C)c3)nc2c1 -3.32%
CCOc1ccc(NC(=O)CCSc2nc(-c3ccc4c(c3)OCO4)cc(C(F)(F)F)n2)cc1 -4.91%
Cc1cc(-n2nc3ccc(Cl)cc3n2)c(O)c(C(C)(C)C)c1 5.21%
COc1ccc(-n2c3c(cc(-c4nc(-c5ccc(Cl)cc5)cs4)c2=O)C(=O)CC(C)(C)C3)cc1Cl -9.94%
CCOc1ccc(NC(=O)CCNS(=O)(=O)c2cccc3nsnc23)cc1 -1.2%
CCc1cccc(C)c1NC(=O)C(CC)Sc1nncn2c1cc1occc12 (stereo not drawn) -19.3%
CCC(=O)Nc1cc(-c2nc3ccccc3s2)c(Cl)cc1Cl -5.77%
Cc1ccc(Nc2nc(C)c(NC(=O)c3ccc(C)cc3)c(Nc3ccc(C)cc3)n2)cc1 -37%
CCS(=O)(=O)N1CCc2cc(C(=O)Nc3cc(OC)c(Cl)cc3OC)ccc21 -12.2%
CCOc1ccc(C(=O)Nc2ccc3oc(-c4ccncc4)nc3c2)cc1 7.72% [at 11.5 µM, percent change from vehicle, -100% = no light]
COc1ccc(NC(=O)c2oc3ccccc3c2NC(=O)COc2ccc(F)cc2)c(OC)c1 0.568%
CCCNc1nc2c(c(=O)n(C)c(=O)n2C)n1CC(O)COc1ccccc1 (stereo not drawn) -12.4%
CN1[C@H]2CC(OC(=O)[C@@H](CO)c3ccccc3)C[C@H]1[C@H]1O[C@H]12 (stereo partly drawn) -3.85% [at 25.1 µM, percent change from vehicle, -100% = no light]
Cc1ccc(NC(=O)Cn2cc(C(=O)C3CCCCC3)c3ccccc32)c(C)c1 -24.1%
Cc1cccc(C(=O)Nc2nnc(S(=O)(=O)N3CCCc4ccccc43)s2)c1 -69%
Cc1ccc(-c2nnc(Nc3cccc(Br)c3)c3ccccc23)cc1S(=O)(=O)NCC1CCCO1 (stereo not drawn) -30.2%
O=C(c1ccc2c(c1)N(Cc1ccc(Cl)cc1)C(=O)c1ccccc1S2(=O)=O)N1CCc2ccccc21 -24.4%
Cc1ccc(NC(=O)CCCn2nc(C)c3sc4ccccc4c3c2=O)c(Cl)c1 -4.31%
COC(=O)c1ccccc1NC(=O)CSc1nnc2cc(C)c3cc(C)cc(C)c3n12 -16.4%
CCC(C(=O)Nc1cccc(C#N)c1)n1nc(-c2ccccc2)ccc1=O (stereo not drawn) -30.5%
O=C(NCc1ccc(F)cc1)C(=O)NCC(c1ccco1)S(=O)(=O)c1cccs1 (stereo not drawn) -17.8%
O=C(Cn1ccc2cc(S(=O)(=O)N3CCCC3)ccc21)NCc1ccccc1Cl -21.5%
CCN1c2ccccc2-c2nc(SCC(=O)Nc3cc(F)ccc3F)ncc2S1(=O)=O -17.4%
CCOC(=O)N1CCc2c(sc3c2c(=O)n(-c2ccc(F)cc2)c(=O)n3CC(=O)c2ccccc2)C1 -5.42%
Cc1cccc(CN2C(=O)c3ccccc3Sc3ccc(C(=O)NCc4cccs4)cc32)c1 -23.1%
CCOC(=O)c1c(C)n(-c2ccccc2)c2ccc(OC(=O)c3cc(OC)cc(OC)c3)cc12 -3.52% [at 11.5 µM, percent change from vehicle, -100% = no light]
